Data on 86 sequences can be found in the supplement of paper PMC3334620.

The full ranking holds about 33,000 sequences; the median of “E-score (-0.5 to 0.5)” is about -0.016, and the highest 2% start at about 0.32. This is one part of the list.

The target in the assay is T1, Stp1 (UniProt B3LFK1).
T1 sequence: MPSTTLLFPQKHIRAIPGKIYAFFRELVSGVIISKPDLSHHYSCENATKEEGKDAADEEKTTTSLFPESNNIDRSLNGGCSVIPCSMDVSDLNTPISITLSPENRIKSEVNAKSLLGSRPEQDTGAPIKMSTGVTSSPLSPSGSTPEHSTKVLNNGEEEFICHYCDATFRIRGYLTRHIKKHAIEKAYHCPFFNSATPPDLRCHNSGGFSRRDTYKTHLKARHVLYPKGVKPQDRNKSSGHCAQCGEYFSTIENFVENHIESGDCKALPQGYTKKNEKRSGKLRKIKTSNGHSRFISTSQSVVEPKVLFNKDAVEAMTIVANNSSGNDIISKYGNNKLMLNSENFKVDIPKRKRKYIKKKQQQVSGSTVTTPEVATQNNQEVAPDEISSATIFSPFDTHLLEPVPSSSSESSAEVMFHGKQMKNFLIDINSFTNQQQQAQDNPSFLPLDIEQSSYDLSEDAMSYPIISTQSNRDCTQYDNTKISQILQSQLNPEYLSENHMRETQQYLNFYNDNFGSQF
Description: PBM E-score (8-mer binding enrichment) (E-score (-0.5 to 0.5)); higher = stronger / more preferred TF binding; most listed sequences are background and not binding sites. To be noted: protein concentration: 200 nM; construct: GST-full length. As to the method: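 Universal 'all 10-mer' protein binding microarrays (Agilent AMADID 015681) probed with GST-tagged S. cerevisiae TFs (full-length or DBD) made by in vitro transcription/translation (PURExpress), about 100-200 nM. Bound TF was detected with fluorescent anti-GST. Each ungapped 8-mer (which stands for itself and its reverse complement) is scored by the PBM enrichment score (E-score), a modified Wilcoxon-Mann-Whitney statistic from -0.5 to +0.5, computed with the Universal PBM Analysis Suite. Scale: above 0.35 generally sequence-specific binding.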
With CCATTGGG, the “PBM E-score” value is -0.271.
To GGCAGTAC belongs 0.111; to ATTTCAAG, -0.0264; to AATCTCAC, -0.0391.
As for GTACGGGA, the “PBM E-score” value is 0.0383.
As for AAAAGCTT, the “PBM E-score” value is -0.0455.
For the sequence CAGTACAA, the “PBM E-score” value was 0.0526.
For ACATGTCC, the “PBM E-score” value is -0.0333.
As for CATTCCCG, the “PBM E-score” value came to 0.0968.
Take CATTAACC: the “PBM E-score” value is 0.128.
The value for ATCAGTCG was 0.0722.
To ATGAATTA belongs 0.175; to CCTACGTC, -0.238.
Turning to ACTGTTCT, the “PBM E-score” value is -0.054.
In the case of AAAACCAA, the “PBM E-score” value worked out at 0.207.
With ATTCACTC, the “PBM E-score” value amounted to 0.143.
The value for ACGAGACA was -0.112; that for GTGTCAAA was 0.188.
To AAAGGCCG belongs 0.277; to GGGGAGTA, -0.21.
Turning to ATACTTGG, the “PBM E-score” value was -0.132.
Take AATGGGTG: the “PBM E-score” value was -0.213.
With ATCTATGG, the “PBM E-score” value was -0.175.
Consider ACGCCCTC, for which the “PBM E-score” value came out at 0.0547.
On to ATTGGCTC, for which the “PBM E-score” value was determined as 0.0423.
Take CGAAGGTC: the “PBM E-score” value is -0.237.
To ATCGGGGG belongs -0.339; to GACAAAAA, 0.16; to CGTTGCGC, 0.247.
Regarding AGCGAAAT, the “PBM E-score” value is -0.0393.
As to GCGAAAGA, the “PBM E-score” value is -0.0909.
Regarding GAATACAA, the “PBM E-score” value turned out to be 0.112.
To AACGGTAC belongs 0.207; to CTCGTGTC, -0.0913.
To CTACTTTA belongs -0.00743.
Take TGAGTCAA: the “PBM E-score” value was -0.0858.
For AGCCAGCA, the “PBM E-score” value is -0.297.
Take GCATTCGC: the “PBM E-score” value is -0.0355.
On to AATGATCA, for which the “PBM E-score” value was determined as 0.0814.
Regarding CATCTATA, the “PBM E-score” value came to 0.0866.
On to CCGCCCGG, for which the “PBM E-score” value stood at 0.14.
In the case of GAGCAGTA, the “PBM E-score” value turned out to be 0.0417.
Turning to GCCTCAGC, the “PBM E-score” value was 0.152.
To AATTATGC belongs 0.236.
In the case of ATCGAATC, the “PBM E-score” value is 0.0726.
Turning to GCAAATGC, the “PBM E-score” value turned out to be 0.164.
For the sequence CCGCCGAC, the “PBM E-score” value was -0.0454.
Turning to AATTAGGT, the “PBM E-score” value worked out at 0.0597.
Regarding CGGACGTA, the “PBM E-score” value worked out at 0.0486.
For CGTTAGTC, the “PBM E-score” value is -0.0636.
In the case of ATCTCCCG, the “PBM E-score” value is -0.208.
ACTAGGAA: the “PBM E-score” value was -0.161.
In the case of AGCGACCA, the “PBM E-score” value was -0.0329.
On to CTCTGAAA, for which the “PBM E-score” value amounted to 0.0291.
The value for ATTAAGCC was 0.136; that for CTCTACAG was -0.0812; that for CAGTTCTA was -0.128.
For GGATGTAC, the “PBM E-score” value was -0.168.
For AAGATTCT, the “PBM E-score” value was determined as 0.0266.
In the case of GTTCACGA, the “PBM E-score” value was -0.0527.
On to AAACGCGG, for which the “PBM E-score” value came to 0.295.
In the case of ATGGCTAA, the “PBM E-score” value was -0.00986.
As to ATAGCTAA, the “PBM E-score” value was -0.163.
Turning to CTCAAAAC, the “PBM E-score” value turned out to be 0.15.
The value for CCCTCGTC was -0.144; that for CGTCCTGA was -0.0412; that for CAAACCTC was -0.344.
Turning to CGGGATGA, the “PBM E-score” value is -0.149.
To CAGTTTAG belongs -0.172.
GTCTTACA: the “PBM E-score” value is -0.154.
Take ACAGCTTC: the “PBM E-score” value was -0.2.
The value for GTGGCTGA was -0.00478.
Consider GTAGGGAA, for which the “PBM E-score” value was -0.018.
Regarding AAAACCTG, the “PBM E-score” value was -0.16.
On to GATTCACA, for which the “PBM E-score” value came to 0.0471.
For GTCTCAAA, the “PBM E-score” value is -0.0727.
To CAAAACCA belongs 0.152; to GAATCTTA, 0.158; to ATAAGTGC, -0.0812.
Take GATGAGTA: the “PBM E-score” value was -0.00716.
On to CAGCGTCC, for which the “PBM E-score” value was -0.148.
The value for CAATCTGC was -0.0198; that for ATTCCGGC was 0.0336.
To CAAACACC belongs 0.0562; to CTATTATC, 0.108; to AACGCTCA, -0.229.
